In PubChem BioAssay (Tox21):
Where “and” joins values, the source holds several entries; their conditions need not be identical. Equal entries are not always repeated. The inconclusive results got no clear call from the source; some entries with a clear call stand among them for comparison. For some assays here: A potency beside an inconclusive call is a rough fit, not a confirmed value. Calls of active or inactive are those of the source. Unless noted, calls come from the whole dose curve; as a rule, active = well fitted curve in the direction sought with a large enough effect in the repeat runs; inconclusive = weak or mixed curves; inactive = no such curve, though single readings can be large; an effect the other way counts as inactive or inconclusive.

Columns and labels:
[1] = qHTS RealTime-Glo MT Cell Viability Assay in HEK293 cells - 24 hour (AID 1224886); note: potency is the fitted concentration of half-maximal effect; nearly all actives have a fitted effect of over 50% in size
How it was run: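 Cells + reagent dispensed (600 cells/well, HEK293) → 5 h at 37 C/5% CO2 → 23 nL compound in DMSO pinned → 40 h at 37 C → luminescence read at 0, 8, 16, 24, 32, 40 h.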

[2] = qHTS RealTime-Glo MT Cell Viability Assay in HEK293 cells - 8 hour (AID 1224887); note: potency is the fitted concentration of half-maximal effect; nearly all actives have a fitted effect of over 50% in size
How it was run: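 qHTS format; HEK293 cells with NanoLuc/prosubstrate reagent, 37 C/5% CO2 for 5 h pre-dosing; compounds 23 nL in DMSO; luminescence at each time point reflects viable cells.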

[3] = A CellTox Green Cytotoxicity Assay to monitor cytotoxicity in HEK293 cells - 16 hour (AID 1224888); note: potency is the fitted concentration of half-maximal effect; nearly all actives have a fitted effect of over 35% in size
How it was run: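 Each value comes from one timepoint of a single continuous run in which HEK293 cells with CellTox Green were exposed to compound for up to 40 h at 37 C, dye fluorescence rising with cell death.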

[4] = qHTS assay to identify small molecule antagonists of the androgen receptor (AR) signaling pathway using the MDA cell line in the presence of 0.5 nM R1881 - cell viability counter screen (AID 1259242); note: potency is the fitted concentration of half-maximal effect; nearly all actives have a fitted effect of over 45% in size
How it was run: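 Fluorescence from CellTiter-Fluor, which reports protease activity of live cells, was read 30 min after reagent addition to MDA-kb2 cells that had been incubated 16 hr with compound and 0.5 nM R1881.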

[5] = qHTS assay to identify small molecule HDAC inhibitors (AID 1259364); note: potency is the fitted concentration of half-maximal effect; nearly all actives have a fitted effect of over 45% in size
How it was run: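 Endogenous HDAC class I/II activity was measured in wild-type HCT-116 cells by HDAC-Glo luminescence after 2 h compound treatment.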

[6] = biological target: Estrogen receptor beta (Homo sapiens) (UniProt Q92731); experiment: qHTS assay to identify small molecule agonists of the estrogen receptor beta (ER-beta) signaling pathway (AID 1259377; active = well fitted activation curve with a large enough effect in the signal ratio in the repeat runs, not every such curve was filed as active; inconclusive = weak or mixed curves, or effect the other way; the % refers to the signal ratio; note: potency is the fitted concentration of half-maximal effect); conditions: ER-beta-UAS-bla HEK293T, beta-lactamase FRET ratio, 16 h; activation: at 92.4 µM (top of the series) unless noted
How it was run: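 Beta-lactamase reporter readout: fluorescence of LiveBLAzer B/G FRET substrate after 2 h at room temperature, following 16 h compound treatment of ER-beta-UAS-bla HEK293T cells at 37C in 2% charcoal-stripped FBS medium.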

[7] = biological target: Estrogen receptor beta (Homo sapiens) (UniProt Q92731); experiment: qHTS assay to identify small molecule antagonists of the estrogen receptor beta (ER-beta) signaling pathway (AID 1259378; active = well fitted inhibition curve with a large enough effect in the signal ratio in the repeat runs, not every such curve was filed as active; inconclusive = weak or mixed curves, or effect the other way; inactive = no such curve, though single readings can be large or run the other way; the % refers to the signal ratio; note: % is set by controls: 0 for no effect and ±100 for the full control effect); conditions: ER-beta-UAS-bla HEK293T, beta-lactamase FRET ratio, 16 h; activity, negative = inhibition: at 92.4 µM (top of the series) unless noted
How it was run: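 ER-beta-UAS-bla HEK293T cells in 2% charcoal-stripped FBS medium treated with compound plus 1nM final 17-beta-estradiol for 16 hr at 37C. Beta-lactamase reporter read by FRET substrate fluorescence after 2 hours at room temperature.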

[8] = biological target: Estrogen receptor (Homo sapiens) (UniProt P03372); experiment: qHTS assay to identify small molecule antagonists of the estrogen receptor alpha (ER-alpha) signaling pathway using the BG1 cell line in the presence of 0.1 nM 17-beta-estradiol (AID 1259244); note: potency is the fitted concentration of half-maximal effect; nearly all actives have a fitted effect of over 50% in size
How it was run: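 Quantitative high-throughput screen in VM7Luc4E2 cells: compound plus 0.1 nM E2 (final), 22 h, 37C, 5% CO2; ONE-Glo added, 30 min room temperature, luminescence measured.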

[9] = qHTS assay to identify small molecule antagonists of the estrogen receptor alpha (ER-alpha) signaling pathway using the BG1 cell line in the presence of 0.1 nM 17-beta-estradiol - cell viability counter screen (AID 1259241); note: % is set by controls: 0 for no effect and ±100 for the full control effect; nearly all actives have a fitted effect of over 40% in size
How it was run: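 Live-cell protease activity (CellTiter-Fluor fluorescence, 30 min) was read in the same wells after VM7Luc4E2 cells had been exposed to compounds with 0.1 nM 17beta-estradiol for 22 hr at 37C.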

[10] = qHTS assay to identify small molecule antagonists of the sonic hedgehog signaling (Shh) pathway - cell viability counter screen (AID 1259367); note: nearly all actives have a fitted effect of over 55% in size; note: potency is the fitted concentration of half-maximal effect
How it was run: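 NIH/3T3-derived Gli1-Luc reporter cells, 2,000/well, plated 4 hr before compound addition, then stimulated with conditioned medium for 24 hr at 37C. Viability measured in the same wells by CellTiter-Fluor fluorescence, reagent added at 23 hr for 1 hr.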

[11] = A CellTox Green Cytotoxicity Assay to monitor cytotoxicity in HepG2 cells - 8 hour (AID 1224890); note: potency is the fitted concentration of half-maximal effect; nearly all actives have a fitted effect of over 45% in size
How it was run: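 Continuous culture of HepG2 cells with a membrane-impermeant DNA dye; rising fluorescence marks dead cells. Compound exposure lasted up to 40 h at 37 C, with reads every 8 h from 0 h.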

[12] = qHTS assay to identify small molecule antagonists of the sonic hedgehog signaling (Shh) pathway (AID 1259369; calls by dose curve; note: potency is the fitted concentration of half-maximal effect; nearly all actives have a fitted effect of over 45% in size)
How it was run: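 Screening used 3T3Gli1-Luc cells at 2,000 per well, compounds delivered in DMSO, and conditioned medium as agonist stimulus; plates incubated 24hr at 37 C and 5% CO2 before a 30min luciferase step.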

[13] = qHTS assay to identify small molecule phospholipidosis (PLD) inducers (AID 1259344; active = well fitted curve in the direction sought with a large enough effect; inconclusive = small, poorly fitted or top-dose-only effect, or another doubt; inactive = no such curve, though single readings can be large; an effect the other way counts as inactive or inconclusive; note: potency is the fitted concentration of half-maximal effect)
How it was run: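 HepG2 cells, 900/well, treated with compound plus LipidTOX Red for 24 h at 37 C; amiodarone positive and DMSO negative controls. Fixed with paraformaldehyde/Hoechst, then high-content imaging scored LipidTOX pit count and integrated intensity per well and per cell.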

[14] = qHTS RealTime-Glo MT Cell Viability Assay in HepG2 cells - 0 hour (AID 1224889); note: potency is the fitted concentration of half-maximal effect; nearly all actives have a fitted effect of over 50% in size
How it was run: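 Real-time, nonlytic viability: 600 HepG2 cells/well mixed with NanoLuc enzyme plus prosubstrate; 5 h settle, compound (DMSO) added by pintool; luminescence monitored over 40 h at 37 C.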

[15] = biological target: Androgen receptor (Homo sapiens) (UniProt P10275); experiment: qHTS assay to identify small molecule antagonists of the androgen receptor (AR) signaling pathway using the MDA cell line in the presence of 0.5 nM R1881 (AID 1259243)
How it was run: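 Inhibition of R1881 (0.5 nM final) induced reporter signal was measured in human MDA-kb2 cells; note the MMTV promoter also responds to GR. Exposure lasted 16 hr at 37C.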

[16] = qHTS assay to identify small molecule HDAC inhibitors - cell viability counter screen (AID 1259365)
How it was run: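 HCT-116 (wild type), 1,500 cells/well, overnight 37C/5% CO2; compound in DMSO 2hr; CellTiter-Glo 30min RT; luminescence read.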

[17] = qHTS assay to identify small molecule agonists of the sonic hedgehog signaling (Shh) pathway - cell viability counter screen (AID 1259366)
How it was run: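 CellTiter-Fluor fluorescence read-out, 1 hr at 37C, added after 23hr compound exposure. Cells: 3T3 Gli1-Luc, an NIH/3T3 clone with stably integrated Gli1-Luc reporter, plated 4hr before compound.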

[18] = qHTS assay to identify small molecule agonists of the sonic hedgehog signaling (Shh) pathway (AID 1259368; calls by dose curve; note: potency is the fitted concentration of half-maximal effect; nearly all actives have a fitted effect of over 15% in size)
How it was run: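 Luminescent signal was taken as a measure of Gli1-controlled luciferase expression in stably transfected NIH/3T3-derived cells that had been treated for 24 hr with compounds delivered in DMSO.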

[19] = qHTS assay to identify small molecule agonists of the androgen receptor (AR) signaling pathway in the presence of an antagonist - cell viability counter screen (AID 1259379); note: potency is the fitted concentration of half-maximal effect; nearly all actives have a fitted effect of over 25% in size
How it was run: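 In MDA-kb2 cells (human breast carcinoma, MMTV-luciferase), compounds at 15 concentrations plus 3.0uM nilutamide; 16 hr, 37C, 0% CO2; CellTiter-Fluor fluorescence read for viability.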
Tags give direction and shape of the fitted curve or compound fluorescence and quenching.

Sequence of UniProt Q92731 (Q92731 whole entry, looked up): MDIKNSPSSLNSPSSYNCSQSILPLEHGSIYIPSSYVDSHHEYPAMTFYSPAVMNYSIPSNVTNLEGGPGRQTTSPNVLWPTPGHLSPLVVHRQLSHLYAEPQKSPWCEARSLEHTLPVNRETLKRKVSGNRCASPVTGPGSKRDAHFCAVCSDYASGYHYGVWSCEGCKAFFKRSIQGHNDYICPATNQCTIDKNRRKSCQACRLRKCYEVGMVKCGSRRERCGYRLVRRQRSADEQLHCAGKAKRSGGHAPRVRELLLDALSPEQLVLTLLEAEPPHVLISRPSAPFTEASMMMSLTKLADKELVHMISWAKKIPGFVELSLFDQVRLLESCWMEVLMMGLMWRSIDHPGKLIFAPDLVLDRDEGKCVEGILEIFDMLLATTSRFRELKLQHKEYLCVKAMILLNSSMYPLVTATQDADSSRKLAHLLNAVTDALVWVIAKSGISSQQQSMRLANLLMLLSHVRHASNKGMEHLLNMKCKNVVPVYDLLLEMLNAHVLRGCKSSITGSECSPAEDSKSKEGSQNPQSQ
Sequence of UniProt P03372 (P03372 whole entry, looked up): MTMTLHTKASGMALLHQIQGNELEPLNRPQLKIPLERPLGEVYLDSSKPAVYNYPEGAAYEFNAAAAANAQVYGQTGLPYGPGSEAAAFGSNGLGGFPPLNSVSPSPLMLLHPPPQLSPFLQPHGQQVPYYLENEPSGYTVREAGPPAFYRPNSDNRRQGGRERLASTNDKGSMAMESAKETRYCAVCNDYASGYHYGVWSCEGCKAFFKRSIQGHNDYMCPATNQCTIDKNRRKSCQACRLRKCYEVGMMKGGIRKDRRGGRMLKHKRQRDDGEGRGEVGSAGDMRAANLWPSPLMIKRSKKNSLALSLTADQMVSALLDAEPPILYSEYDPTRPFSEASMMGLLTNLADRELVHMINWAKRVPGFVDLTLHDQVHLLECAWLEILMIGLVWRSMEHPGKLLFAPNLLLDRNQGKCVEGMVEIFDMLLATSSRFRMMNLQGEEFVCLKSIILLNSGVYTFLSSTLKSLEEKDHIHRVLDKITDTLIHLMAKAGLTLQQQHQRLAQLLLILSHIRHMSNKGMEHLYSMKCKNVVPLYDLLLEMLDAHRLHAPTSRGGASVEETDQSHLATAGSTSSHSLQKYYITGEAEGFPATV
Sequence of UniProt P10275 (P10275 whole entry, looked up): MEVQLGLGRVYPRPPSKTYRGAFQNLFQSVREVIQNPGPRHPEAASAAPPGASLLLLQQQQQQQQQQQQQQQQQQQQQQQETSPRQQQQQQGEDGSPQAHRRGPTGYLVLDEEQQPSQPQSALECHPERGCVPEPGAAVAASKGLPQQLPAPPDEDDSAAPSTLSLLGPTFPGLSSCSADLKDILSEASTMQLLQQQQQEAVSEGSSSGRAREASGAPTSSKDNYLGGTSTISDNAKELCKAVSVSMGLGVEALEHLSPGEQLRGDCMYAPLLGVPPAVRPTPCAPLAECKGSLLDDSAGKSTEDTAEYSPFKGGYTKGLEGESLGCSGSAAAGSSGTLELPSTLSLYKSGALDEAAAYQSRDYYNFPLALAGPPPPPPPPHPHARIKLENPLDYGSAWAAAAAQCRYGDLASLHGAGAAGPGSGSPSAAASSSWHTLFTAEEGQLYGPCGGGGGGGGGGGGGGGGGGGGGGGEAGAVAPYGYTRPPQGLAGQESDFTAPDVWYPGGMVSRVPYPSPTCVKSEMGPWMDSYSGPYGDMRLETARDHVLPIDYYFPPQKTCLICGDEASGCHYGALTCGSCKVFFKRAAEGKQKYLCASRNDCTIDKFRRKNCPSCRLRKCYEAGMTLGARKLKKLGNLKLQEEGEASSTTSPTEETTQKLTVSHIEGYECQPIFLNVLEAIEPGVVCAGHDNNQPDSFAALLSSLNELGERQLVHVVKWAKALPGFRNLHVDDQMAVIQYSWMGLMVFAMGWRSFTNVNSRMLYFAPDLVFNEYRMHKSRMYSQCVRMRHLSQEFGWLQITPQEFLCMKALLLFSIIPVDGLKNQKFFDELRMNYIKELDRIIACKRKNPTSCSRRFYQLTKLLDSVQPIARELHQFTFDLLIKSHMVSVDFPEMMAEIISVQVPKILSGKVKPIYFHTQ

O=C(O)c1cc[c]([Hg][Cl])cc1
Potency [1]: inconclusive: 2.45 µM [rising, partial curve]
Potency [2]: active: 34.7 µM
Potency [3]: inconclusive: 30.9 µM [activator, partial curve, poor fit]
Potency [4]: inconclusive: 68.6 µM [cytotoxic]
Potency [5]: active: 30.6 µM
Potency [6]: inconclusive: 54.5 µM [rising, partial curve, poor fit]
activity, negative = inhibition [7]: inconclusive: -64.9%

Clc1cc2c(cc1Cl)Oc1cc(Cl)c(Cl)cc1O2
Potency [1]: inconclusive: 0.213 µM [cytotoxic, single point]
Potency [2]: inconclusive: 0.213 µM [cytotoxic, single point]
Potency [8]: inconclusive: 0.006 µM [inhibitor, full curve]

Clc1ccccc1-c1ccccc1Cl
Potency [1]: inconclusive: 70.2 µM [cytotoxic, partial curve]
Potency [2]: inconclusive: 35.2 µM [cytotoxic, partial curve]
Potency [3]: active: 35.2 µM
Potency [9]: inactive
Potency [10]: inactive

CC(Cc1ccc(C(C)(C)C)cc1)CN1C[C@@H](C)O[C@@H](C)C1 (some centres undefined)
Potency [1]: inconclusive: 34.7 µM [cytotoxic, partial curve]
Potency [3]: inconclusive: 54.9 µM [activator, single point]
Potency [11]: inconclusive: 54.9 µM [activator, single point]
Potency [12]: inconclusive: 27.3 µM [inhibitor, single point]

CCOP(=O)(NC(C)C)Oc1ccc(SC)c(C)c1 (centres undefined)
Potency [1]: inconclusive: 11 µM [cytotoxic, full curve]
Potency [2]: inconclusive: 49 µM [cytotoxic, partial curve, poor fit]
Potency [3]: inconclusive: 54.9 µM [activator, partial curve, poor fit]
Potency [13]: inconclusive: 31.6 µM [activator, partial curve, poor fit]
Potency [10]: inconclusive: 54.5 µM [cytotoxic, partial curve, poor fit]
Potency [12]: inconclusive: 0.486 µM [inhibitor, full curve, poor fit]
Potency [6]: inconclusive: 61.1 µM [fluorescent]
activity, negative = inhibition [7]: inconclusive: -31.8%

O=C(CCl)c1ccc(Cl)cc1Cl
Potency [1]: inconclusive: 21.8 µM [cytotoxic, partial curve] and active: 4.77 µM
Potency [2]: inconclusive: 3.79 µM [cytotoxic, full curve]
Potency [14]: inconclusive: 61.4 µM [cytotoxic, partial curve, poor fit]
Potency [11]: inconclusive: 23.9 µM [activator, partial curve, poor fit]
Potency [4]: inconclusive: 13.3 µM [cytotoxic, partial curve]
Potency [15]: inconclusive: 48.3 µM [inhibitor, partial curve]
Potency [5]: inconclusive: 23.7 µM [inhibitor, partial curve, poor fit]
Potency [16]: inconclusive: 11.9 µM [rising, partial curve]
Potency [17]: inconclusive: 54.2 µM [cytotoxic, partial curve, poor fit]
Potency [10]: inactive
Potency [18]: inconclusive: 60.8 µM [activator, partial curve, poor fit]
Potency [12]: inconclusive: 19.2 µM [inhibitor]

CCOP(=O)(OCC)O/C(=C/Cl)c1ccc(Cl)cc1Cl
Potency [1]: active: 24.5 µM
Potency [2]: inconclusive: 49 µM [cytotoxic, single point]
Potency [8]: active: 54.5 µM
Potency [12]: inconclusive: 24.3 µM [inhibitor, partial curve]
Potency [19]: inconclusive: 68.6 µM [cytotoxic, single point]
